# Assay results published in the supplement of paper PMC8728848.
# The list shows a part of the results.
# B1: LecRKVI.2 (protein)
# chain: RTTTNFAFRGFNGNQSKIRIEGAAMIKPDGLLRLTDRKSNVTGTAFYHKPVRLLNRNSTNVTIRSFSTSFVFVIIPSSSSNKGFGFTFTLSPTPYRLNAGSAQYLGVFNKENNGDPRNHVFAVEFDTVQGSRDDNTDRIGNDIGLNYNSRTSDLQEPVVYYNNDDHNKKEDFQLESGNPIQALLEYDGATQMLNVTVYPARLGFKPTKPLISQHVPKLLEIVQEEMYVGFTASTGKGQSSAHYVMGWSFSSGGERPIADVLILSELPPPPPNKAKKEGLNS
# Assays:
# Test in all cases: glycan array binding signal (z-score within array); higher = stronger binding
# Details in all cases: glycan notation: IUPAC condensed, linker removed
# [1] = molecular target: Neu5Ac(a2-6)Gal(b1-4)GlcNAc(b1-2)Man(a1-3)[Man(a1-6)]Man(b1-4)GlcNAc(b1-4)GlcNAc
# Procedure, shortened: (§1)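 Negative Z-scores can be read as non-binding. The Z-score is calculated within each array and then averaged across arrays of one protein sequence at different concentrations or buffers and across linkers. Arrays, 3228 in all, were curated from the Consortium for Functional Glycomics database and kept only where the protein sequence was available.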
# [2] = molecular target: Neu5Ac(a2-6)Gal(b1-4)GlcNAc(b1-2)Man(a1-3)[Neu5Ac(a2-3)Gal(b1-4)GlcNAc(b1-2)Man(a1-6)]Man(b1-4)GlcNAc(b1-4)GlcNAc
# Procedure, shortened: as §1
# [3] = molecular target: Neu5Ac(a2-6)Gal(b1-4)GlcNAc(b1-2)Man(a1-3)[Neu5Ac(a2-6)Gal(b1-4)GlcNAc(b1-2)Man(a1-6)]Man(b1-4)GlcNAc(b1-4)GlcNAc
# Procedure, shortened: as §1
# [4] = molecular target: Neu5Ac(a2-6)Gal(b1-4)GlcNAc(b1-2)Man(a1-3)[Neu5Ac(a2-6)Gal(b1-4)GlcNAc(b1-2)Man(a1-6)]Man(b1-4)GlcNAc(b1-4)[Fuc(a1-6)]GlcNAc
# Procedure, shortened: as §1
# [5] = molecular target: Neu5Ac(a2-6)Gal(b1-4)GlcNAc(b1-2)Man(a1-6)Man(b1-4)GlcNAc(b1-4)GlcNAc
# Procedure, shortened: as §1
# [6] = molecular target: Neu5Ac(a2-6)Gal(b1-4)GlcNAc(b1-2)Man(a1-6)[Gal(b1-4)GlcNAc(b1-2)Man(a1-3)]Man(b1-4)GlcNAc(b1-4)GlcNAc
# Procedure, shortened: as §1
# [7] = molecular target: Neu5Ac(a2-6)Gal(b1-4)GlcNAc(b1-2)Man(a1-6)[GlcNAc(b1-2)Man(a1-3)]Man(b1-4)GlcNAc(b1-4)GlcNAc
# Procedure, shortened: as §1
# [8] = molecular target: Neu5Ac(a2-6)Gal(b1-4)GlcNAc(b1-2)Man(a1-6)[Man(a1-3)]Man(b1-4)GlcNAc(b1-4)GlcNAc
# Procedure, shortened: as §1
# [9] = molecular target: Neu5Ac(a2-6)Gal(b1-4)GlcNAc(b1-2)[Neu5Ac(a2-6)Gal(b1-4)GlcNAc(b1-4)]Man(a1-3)[GlcNAc(b1-4)][Neu5Ac(a2-6)Gal(b1-4)GlcNAc(b1-2)[Neu5Ac(a2-6)Gal(b1-4)GlcNAc(b1-6)]Man(a1-6)]Man(b1-4)GlcNAc(b1-4)GlcNAc
# Procedure, shortened: as §1
# [10] = molecular target: Neu5Ac(a2-6)Gal(b1-4)GlcNAc(b1-2)[Neu5Ac(a2-6)Gal(b1-4)GlcNAc(b1-4)]Man(a1-3)[GlcNAc(b1-4)][Neu5Ac(a2-6)Gal(b1-4)GlcNAc(b1-4)Man(a1-6)]Man(b1-4)GlcNAc(b1-4)GlcNAc
# Procedure, shortened: as §1
# [11] = molecular target: Neu5Ac(a2-6)Gal(b1-4)GlcNAc(b1-2)[Neu5Ac(a2-6)Gal(b1-4)GlcNAc(b1-6)]Man(a1-6)[Neu5Ac(a2-6)Gal(b1-4)GlcNAc(b1-2)Man(a1-3)][GlcNAc(b1-4)]Man(b1-4)GlcNAc(b1-4)GlcNAc
# Procedure, shortened: as §1
# [12] = molecular target: Neu5Ac(a2-6)Gal(b1-4)GlcNAc(b1-3)Gal(b1-3)GlcNAc
# Procedure, shortened: as §1
# [13] = molecular target: Neu5Ac(a2-6)Gal(b1-4)GlcNAc(b1-3)Gal(b1-4)GlcNAc
# Procedure, shortened: as §1
# [14] = molecular target: Neu5Ac(a2-6)Gal(b1-4)GlcNAc(b1-3)Gal(b1-4)GlcNAc(b1-2)Man(a1-3)[Neu5Ac(a2-6)Gal(b1-4)GlcNAc(b1-3)Gal(b1-4)GlcNAc(b1-2)Man(a1-6)]GalNAc
# Procedure, shortened: as §1
# [15] = molecular target: Neu5Ac(a2-6)Gal(b1-4)GlcNAc(b1-3)Gal(b1-4)GlcNAc(b1-3)Gal(b1-4)GlcNAc
# Procedure, shortened: as §1
# [16] = molecular target: Neu5Ac(a2-6)Gal(b1-4)GlcNAc(b1-3)Gal(b1-4)GlcNAc(b1-3)Gal(b1-4)GlcNAc(b1-2)Man(a1-3)[Neu5Ac(a2-6)Gal(b1-4)GlcNAc(b1-3)Gal(b1-4)GlcNAc(b1-3)Gal(b1-4)GlcNAc(b1-2)Man(a1-6)]GalNAc
# Procedure, shortened: as §1
# [17] = molecular target: Neu5Ac(a2-6)Gal(b1-4)GlcNAc(b1-3)Gal(b1-4)GlcNAc(b1-3)GalNAc
# Procedure, shortened: as §1
# [18] = molecular target: Neu5Ac(a2-6)Gal(b1-4)GlcNAc(b1-3)Gal(b1-4)GlcNAc(b1-3)[Neu5Ac(a2-6)Gal(b1-4)GlcNAc(b1-3)Gal(b1-4)GlcNAc(b1-6)]GalNAc
# Procedure, shortened: as §1
# [19] = molecular target: Neu5Ac(a2-6)Gal(b1-4)GlcNAc(b1-3)Gal(b1-4)GlcNAc(b1-6)[Gal(b1-3)]GalNAc
# Procedure, shortened: as §1
# [20] = molecular target: Neu5Ac(a2-6)Gal(b1-4)GlcNAc(b1-3)Gal(b1-4)[Fuc(a1-3)]GlcNAc(b1-3)Gal(b1-4)[Fuc(a1-3)]GlcNAc
# Procedure, shortened: as §1
# [21] = molecular target: Neu5Ac(a2-6)Gal(b1-4)GlcNAc(b1-3)GalNAc
# Procedure, shortened: as §1
# [22] = molecular target: Neu5Ac(a2-6)Gal(b1-4)GlcNAc(b1-3)[Neu5Ac(a2-6)Gal(b1-4)GlcNAc(b1-6)]GalNAc
# Procedure, shortened: as §1
# [23] = molecular target: Neu5Ac(a2-6)Gal(b1-4)GlcNAc(b1-6)GalNAc
# Procedure, shortened: as §1
# [24] = molecular target: Neu5Ac(a2-6)Gal(b1-4)GlcNAc(b1-6)[Gal(b1-3)GlcNAc(b1-3)]Gal(b1-4)Glc
# Procedure, shortened: as §1
# [25] = molecular target: Neu5Ac(a2-6)Gal(b1-4)GlcNAc(b1-6)[Gal(b1-3)]GalNAc
# Procedure, shortened: as §1
# [26] = molecular target: Neu5Ac(a2-6)Gal(b1-4)GlcNAc6S
# Procedure, shortened: as §1
# Neu5Ac(a2-6)GalNAc = molecular target: Neu5Ac(a2-6)GalNAc
# Procedure, shortened: as §1
# [27] = molecular target: Neu5Ac(a2-6)GalNAc(b1-4)GlcNAc
# Procedure, shortened: as §1
# [28] = molecular target: Neu5Ac(a2-6)GalNAc(b1-4)GlcNAc6S
# Procedure, shortened: as §1
# [29] = molecular target: Neu5Ac(a2-6)GlcNAc(b1-4)GlcNAc
# Procedure, shortened: as §1
# [30] = molecular target: Neu5Ac(a2-6)GlcNAc(b1-4)GlcNAc(b1-4)GlcNAc
# Procedure, shortened: as §1
binder,measurement,setting,value
B1,glycan array binding signal (z-score),[1],-0.342
same,glycan array binding signal (z-score),[2],-0.387
same,glycan array binding signal (z-score),[3],0.07
same,glycan array binding signal (z-score),[4],-0.24
same,glycan array binding signal (z-score),[5],-0.281
same,glycan array binding signal (z-score),[6],0.669
same,glycan array binding signal (z-score),[7],-0.347
same,glycan array binding signal (z-score),[8],-0.381
same,glycan array binding signal (z-score),[9],-0.276
same,glycan array binding signal (z-score),[10],-0.327
same,glycan array binding signal (z-score),[11],-0.401
same,glycan array binding signal (z-score),[12],-0.447
same,glycan array binding signal (z-score),[13],-0.367
same,glycan array binding signal (z-score),[14],3.81
same,glycan array binding signal (z-score),[15],-0.339
same,glycan array binding signal (z-score),[16],0.443
same,glycan array binding signal (z-score),[17],-0.398
same,glycan array binding signal (z-score),[18],-0.215
same,glycan array binding signal (z-score),[19],1.58
same,glycan array binding signal (z-score),[20],-0.352
same,glycan array binding signal (z-score),[21],-0.219
same,glycan array binding signal (z-score),[22],0.407
same,glycan array binding signal (z-score),[23],-0.192
same,glycan array binding signal (z-score),[24],-0.324
same,glycan array binding signal (z-score),[25],-0.368
same,glycan array binding signal (z-score),[26],-0.399
same,glycan array binding signal (z-score),Neu5Ac(a2-6)GalNAc,-0.384
same,glycan array binding signal (z-score),[27],-0.335
same,glycan array binding signal (z-score),[28],-0.355
same,glycan array binding signal (z-score),[29],-0.358
same,glycan array binding signal (z-score),[30],-0.394
